# From the BET-seq Pho4 binding data (Le et al. 2018)
# The list shows a part of the results. Values were computed here from the reads of four pooled replicates and scatter widely.
# Target: T1, Pho4 (S. cerevisiae) (UniProt P07270)
# T1 sequence: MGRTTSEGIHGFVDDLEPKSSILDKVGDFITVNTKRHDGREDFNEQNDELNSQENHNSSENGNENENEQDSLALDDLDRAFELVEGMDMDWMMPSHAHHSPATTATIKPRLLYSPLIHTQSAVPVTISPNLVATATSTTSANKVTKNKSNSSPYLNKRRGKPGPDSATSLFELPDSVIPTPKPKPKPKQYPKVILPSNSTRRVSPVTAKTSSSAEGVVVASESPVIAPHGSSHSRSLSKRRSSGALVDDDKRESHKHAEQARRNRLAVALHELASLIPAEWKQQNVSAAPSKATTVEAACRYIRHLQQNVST
# Test: relative binding free energy (BET-seq); higher = weaker binding
# Details: reference: library average
row,Sequence,relative binding free energy
1,AGAACCACGTGTGGGT,-0.04 kcal/mol
2,GGTATCACGTGCGGTG,0.19 kcal/mol
3,TATTTCACGTGGACGG,0.43 kcal/mol
4,TTTCGCACGTGGTGTG,-0.14 kcal/mol
5,GTGCACACGTGGGGAT,-0.13 kcal/mol
6,GAAGTCACGTGTCTGG,0.11 kcal/mol
7,TTTATCACGTGTGACT,0.22 kcal/mol
8,AATGACACGTGTGTAT,0.05 kcal/mol
9,TGAGCCACGTGTAGTG,-0.03 kcal/mol
10,GTGGTCACGTGGGAGA,0.12 kcal/mol
11,ATTGTCACGTGTGACG,0.12 kcal/mol
12,AGAGGCACGTGTATGA,-0.24 kcal/mol
13,TTATCCACGTGGCGTT,0 kcal/mol
14,TGTTTCACGTGACATT,0.36 kcal/mol
15,GTGCGCACGTGACGGT,0.03 kcal/mol
16,TGGGTCACGTGCGTCA,-0.05 kcal/mol
17,CTGGGCACGTGTAGGC,-0.09 kcal/mol
18,TTGATCACGTGATGGC,0.32 kcal/mol
19,GTGTTCACGTGAATTG,0.39 kcal/mol
20,GGGTACACGTGAGAGG,0.21 kcal/mol
21,TGTGGCACGTGGGCTC,-0.24 kcal/mol
22,TTAAGCACGTGTTAAG,-0.08 kcal/mol
23,GTGGACACGTGTTTTA,0.08 kcal/mol
24,GGGTTCACGTGGGGAC,0.12 kcal/mol
25,TAGCGCACGTGGTGTT,-0.1 kcal/mol
26,TTTTTCACGTGTTGCA,0.28 kcal/mol

row,Sequence,relative binding free energy
1,CGTTGCACGTGGCGGC,-0.17 kcal/mol
2,ATTATCACGTGTGCTT,0.03 kcal/mol
3,CGGGGCACGTGTTGGG,-0.09 kcal/mol
4,CTTTGCACGTGGGCGG,-0.23 kcal/mol
5,ATTCTCACGTGGTCTG,0.12 kcal/mol
6,CGGTGCACGTGGGGCT,-0.19 kcal/mol
7,GATTACACGTGGAGGT,0.07 kcal/mol
8,TATATCACGTGTTGCG,0.2 kcal/mol
9,TTCTACACGTGGTGAG,0.08 kcal/mol
10,TATTTCACGTGATGCA,0.35 kcal/mol
11,GTATGCACGTGATGGT,0.12 kcal/mol
12,GTTTACACGTGCGAGG,0.07 kcal/mol
13,AGGGACACGTGTCTGT,-0.1 kcal/mol
14,GTTCTCACGTGTTAGG,0.35 kcal/mol
15,GGAGTCACGTGCGGAT,0.01 kcal/mol
16,TGTCACACGTGGTGTC,0.06 kcal/mol
17,TGCAACACGTGTAGGT,0.16 kcal/mol
18,GGTAACACGTGTGCGA,0.09 kcal/mol
19,AGTTACACGTGAGTGC,0.2 kcal/mol
20,AACAGCACGTGTGGGG,-0.07 kcal/mol
21,AGCTTCACGTGAATGT,0.31 kcal/mol
22,GGTAGCACGTGAGTGC,0.1 kcal/mol
23,CGCGGCACGTGTGAGG,0.02 kcal/mol
24,AAGGTCACGTGTAAGG,0.16 kcal/mol
25,TACTACACGTGTGGTT,0.21 kcal/mol
26,GTGAGCACGTGTAGAA,0.01 kcal/mol

row,Sequence,relative binding free energy
1,TTTAGCACGTGAATGT,0.24 kcal/mol
2,TTTGTCACGTGCGTTG,0.13 kcal/mol
3,TGATGCACGTGGTATG,-0.2 kcal/mol
4,GTTTTCACGTGCGAGA,0.26 kcal/mol
5,GGGCTCACGTGAGGAG,0.44 kcal/mol
6,GTGCTCACGTGGGGTT,0.16 kcal/mol
7,AGAAGCACGTGGGGTA,-0.32 kcal/mol
8,TCTGCCACGTGGTGGT,-0.16 kcal/mol
9,TTGTTCACGTGAGGGC,0.43 kcal/mol
10,AATTGCACGTGATAAT,0.03 kcal/mol
11,CAGGGCACGTGGGGAC,-0.25 kcal/mol
12,ATTGTCACGTGCGGGG,0.02 kcal/mol
13,GTTGTCACGTGCAATT,0.07 kcal/mol
14,ATAGTCACGTGAAGGT,0.05 kcal/mol
15,AGGTACACGTGTTTTA,0.05 kcal/mol
16,TTGGCCACGTGCTTTG,-0.17 kcal/mol
17,CCGGGCACGTGGTGAA,-0.09 kcal/mol
18,ATTTGCACGTGCGTTC,-0.03 kcal/mol
19,TATTTCACGTGGCGGG,0.26 kcal/mol
20,GAGTGCACGTGTAGCT,0.13 kcal/mol
21,GTTAGCACGTGGTTGT,-0.07 kcal/mol
22,TATTGCACGTGGGAAA,-0.07 kcal/mol
23,TCTAGCACGTGTATTG,-0.06 kcal/mol
24,ATCAGCACGTGTGATG,0.12 kcal/mol
25,TAATGCACGTGTTCAG,-0.06 kcal/mol
26,TTAGACACGTGAAGGT,0.21 kcal/mol

row,Sequence,relative binding free energy
1,TGTGGCACGTGTTTTA,-0.02 kcal/mol
2,ATGTGCACGTGGTTAC,0.01 kcal/mol
3,TGCGGCACGTGAATCG,0.2 kcal/mol
4,TAAGGCACGTGGATAA,0 kcal/mol
5,TCCGGCACGTGGGGTT,-0.18 kcal/mol
6,TTTGGCACGTGTTGCG,-0.03 kcal/mol
7,TATAGCACGTGGGCAG,-0.22 kcal/mol
8,TATTCCACGTGTGTGG,0.03 kcal/mol
9,CATAGCACGTGTGTTT,0.01 kcal/mol
10,TATTACACGTGTGTAA,0.01 kcal/mol
11,CATGTCACGTGAGTTT,0.36 kcal/mol
12,AAAGGCACGTGGGGCT,-0.33 kcal/mol
13,ATAGTCACGTGGGAGA,-0.11 kcal/mol
14,TCGTGCACGTGCGGGA,-0.17 kcal/mol
15,TTGGACACGTGCTAGT,0.08 kcal/mol
16,GCTTTCACGTGCGTGG,0.03 kcal/mol
17,TGCGTCACGTGGTAGG,-0.08 kcal/mol
18,TCTTTCACGTGTAGTA,0.27 kcal/mol
19,TTCGGCACGTGGGCGT,-0.21 kcal/mol
20,CAGGGCACGTGTGTTC,-0.05 kcal/mol
21,AGTGACACGTGATGAG,0.04 kcal/mol
22,GAACGCACGTGGTGTT,-0.08 kcal/mol
23,TATTACACGTGGATGG,0.12 kcal/mol
24,TTCAGCACGTGGGCGT,-0.27 kcal/mol
25,ATAAGCACGTGGGGTA,-0.16 kcal/mol
26,GTCTGCACGTGTATTA,0.03 kcal/mol

row,Sequence,relative binding free energy
1,TTCGTCACGTGTTTTC,0.11 kcal/mol
2,GCTATCACGTGGGTGG,-0.03 kcal/mol
3,GATATCACGTGGTGGC,0.23 kcal/mol
4,AATGGCACGTGTGTGG,-0.04 kcal/mol
5,AGCGTCACGTGGGGTC,-0.03 kcal/mol
6,TAATTCACGTGTTCTT,0.28 kcal/mol
7,TAATTCACGTGTGCAT,0.24 kcal/mol
8,TGTCGCACGTGTAGTG,-0.09 kcal/mol
9,TCATGCACGTGTTAGG,-0.07 kcal/mol
10,TGGTACACGTGAGTTT,0.34 kcal/mol
11,AGATTCACGTGCAGGT,0.09 kcal/mol
12,TAGGACACGTGTCTTG,0.06 kcal/mol
13,ATGTTCACGTGTATTT,0.21 kcal/mol
14,TGTGGCACGTGCCGTG,-0.11 kcal/mol
15,TATAACACGTGGTAAG,-0.09 kcal/mol
16,TGGATCACGTGCTGAT,0.16 kcal/mol
17,AAGGGCACGTGTTATG,0.02 kcal/mol
18,TCAGACACGTGTTGGT,0.08 kcal/mol
19,ACTGGCACGTGTGTAG,-0.25 kcal/mol
20,TGGTCCACGTGTGGCG,0.04 kcal/mol
21,TGAGGCACGTGAATGA,0.25 kcal/mol
22,AGTATCACGTGTCATG,0.12 kcal/mol
23,GTGGGCACGTGCGTCT,-0.08 kcal/mol
24,CTATGCACGTGGCTGT,-0.11 kcal/mol
25,GTGTCCACGTGTTCTT,0.18 kcal/mol
26,AGAATCACGTGGGGTT,0.13 kcal/mol

row,Sequence,relative binding free energy
1,GGTGTCACGTGGCGGG,0.24 kcal/mol
2,GATATCACGTGGGATG,-0.02 kcal/mol
3,GATTACACGTGTATTA,0.22 kcal/mol
4,GTTCACACGTGCTGGT,0.11 kcal/mol
5,TGAGGCACGTGAGGGA,0.23 kcal/mol
6,ATGATCACGTGGTTAT,0.22 kcal/mol
7,TATTGCACGTGTCGAA,0.07 kcal/mol
8,TATAACACGTGTGGCT,-0.06 kcal/mol
9,ATAATCACGTGTATTA,0.18 kcal/mol
10,AGGGACACGTGGAAAG,0.19 kcal/mol
11,GGTTGCACGTGTTGGG,0.06 kcal/mol
12,GTGGGCACGTGGTATT,-0.08 kcal/mol
13,TGGTACACGTGAGCGT,0.17 kcal/mol
14,GTGGACACGTGTTTAT,0.08 kcal/mol
15,GGGTGCACGTGAGCTA,0.16 kcal/mol
16,GGTGGCACGTGTCTGA,-0.08 kcal/mol
17,AGTTTCACGTGACCGG,0.51 kcal/mol
18,CTGCGCACGTGGTGAG,-0.14 kcal/mol
19,GGTGACACGTGGGCTG,-0.09 kcal/mol
20,TAGAGCACGTGTGTGG,-0.03 kcal/mol
21,CAGTTCACGTGTGGGG,0.29 kcal/mol
22,TATATCACGTGGTACA,0.18 kcal/mol
23,AGGTTCACGTGGACGT,0.09 kcal/mol
24,TACGTCACGTGGTGAT,0.03 kcal/mol
25,AAATTCACGTGAATGA,0.43 kcal/mol
26,AGTAGCACGTGTAGAA,-0.02 kcal/mol

row,Sequence,relative binding free energy
1,AGTTGCACGTGGCGTA,-0.08 kcal/mol
2,TAATTCACGTGCTTTG,0.19 kcal/mol
3,ATGAGCACGTGTGGTA,-0.11 kcal/mol
4,GGTTGCACGTGTATTT,0.16 kcal/mol
5,AGGTGCACGTGGTCAT,-0.2 kcal/mol
6,TCTTGCACGTGTTGGA,0.04 kcal/mol
7,TGGTTCACGTGAGAAT,0.37 kcal/mol
8,ACAGTCACGTGGGAGT,-0.09 kcal/mol
9,GGTGTCACGTGGGGCA,0.03 kcal/mol
10,AAAGGCACGTGCGGTT,-0.09 kcal/mol
11,AGTTCCACGTGTAAGG,0.19 kcal/mol
12,CATTTCACGTGTTGTG,0.21 kcal/mol
13,TCTGTCACGTGTAGAG,0.1 kcal/mol
14,AGAAGCACGTGCGTGT,-0.23 kcal/mol
15,CGAGGCACGTGTTTGG,-0.08 kcal/mol
16,GAATTCACGTGAGTTG,0.52 kcal/mol
17,TTAGTCACGTGAGAGA,0.33 kcal/mol
18,GGAAGCACGTGGGTCG,-0.26 kcal/mol
19,TGAATCACGTGGTTCT,0.15 kcal/mol
20,GGTAACACGTGATGAT,0.23 kcal/mol
21,GAGCGCACGTGGAGGG,-0.15 kcal/mol
22,ATCGGCACGTGTTGGA,-0.04 kcal/mol
23,TATGGCACGTGAAATT,0.26 kcal/mol
24,TTGTCCACGTGGTGGG,-0.03 kcal/mol
25,ATGGTCACGTGGGGAC,-0.02 kcal/mol
26,AAAAACACGTGTGGTA,0.07 kcal/mol

row,Sequence,relative binding free energy
1,AGGGACACGTGTGCAT,0 kcal/mol
2,GCTGGCACGTGAGAGG,0.08 kcal/mol
3,TGCTTCACGTGTTAAG,0.21 kcal/mol
4,ATCGACACGTGGAAGG,0.24 kcal/mol
5,CAATGCACGTGTTAGT,0.06 kcal/mol
6,CACGTCACGTGGCGGG,-0.01 kcal/mol
7,GGAGGCACGTGCGCTG,-0.12 kcal/mol
8,ACTTTCACGTGTGGCG,0.22 kcal/mol
9,GTGTGCACGTGAGAGA,0.21 kcal/mol
10,GCTGGCACGTGGGGTC,-0.24 kcal/mol
11,CGGGGCACGTGGTTGC,-0.22 kcal/mol
12,GGGCGCACGTGTTGAA,-0.04 kcal/mol
13,GTGAGCACGTGTCTTG,-0.02 kcal/mol
14,AGACGCACGTGGAGGT,-0.11 kcal/mol
15,GAGATCACGTGAGAGG,0.31 kcal/mol
16,TCTTGCACGTGCGTTT,-0.05 kcal/mol
17,GTAATCACGTGGTGTG,0.11 kcal/mol
18,TATGACACGTGGTGGA,-0.04 kcal/mol
19,GTCTACACGTGGGGTT,0.08 kcal/mol
20,AAAGGCACGTGAGTTG,0.27 kcal/mol
21,GAGCTCACGTGGGTTG,0.13 kcal/mol
22,TTAGGCACGTGGTACA,-0.14 kcal/mol
23,ATAGTCACGTGGGGGA,-0.04 kcal/mol
24,AGAATCACGTGGGTTA,0 kcal/mol
25,ATTGTCACGTGTCGCT,0.11 kcal/mol
26,GTGCGCACGTGGGGTG,-0.25 kcal/mol

row,Sequence,relative binding free energy
1,GTTTACACGTGTAAAT,0.43 kcal/mol
2,GCGTTCACGTGGGAGG,0.31 kcal/mol
3,TTGATCACGTGAGCGT,0.37 kcal/mol
4,GACAACACGTGGGGGG,-0.02 kcal/mol
5,GTACTCACGTGTGGTA,0.21 kcal/mol
6,GGGGGCACGTGACCGT,0 kcal/mol
7,GAAATCACGTGTGGCT,0.38 kcal/mol
8,CGTTGCACGTGTAGAG,0.14 kcal/mol
9,TGAAACACGTGGGGCA,-0.1 kcal/mol
10,AAGCGCACGTGGGGCT,-0.17 kcal/mol
11,CGTTGCACGTGGGGAT,-0.05 kcal/mol
12,TCTTGCACGTGTTGTT,0.04 kcal/mol
13,TAATTCACGTGCGTTA,0.07 kcal/mol
14,GGGAGCACGTGGGATT,-0.05 kcal/mol
15,AGTCACACGTGTAAGT,0.15 kcal/mol
16,GGAAGCACGTGCGGGC,0.03 kcal/mol
17,AAATGCACGTGGTCGT,-0.07 kcal/mol
18,GTCAGCACGTGGTACG,-0.02 kcal/mol
19,GTGCTCACGTGCTGTT,0.2 kcal/mol
20,TAAAACACGTGTGTGA,-0.02 kcal/mol
21,CTTTGCACGTGATAGT,0.06 kcal/mol
22,CTTTACACGTGCGTTG,0.19 kcal/mol
